# Source: the supplement of paper PMC10126150
# Values marked as one replicate rest on one cluster of the flow cell; about a third of the high ones do not repeat.
# System: ATP
# Assay: switch fluorescence ratio, 500 uM ATP over buffer (Cy3 cluster intensity, sum of 5 cycles each) (fold (ratio)); higher = stronger signal-on switching upon ATP binding; sequences stand for … in TCGTCGGCAGCGTCAGATGTGTATAAGAGACAGTTTTTTTTTTTTTTTTTTTTTTTTT…TC
# Conditions: aptamer strand: ATP DNA aptamer (quencher-CACCTGGGGGAGTATTGCGGAGGAAGG + anchor), 100 nM annealed; ATP concentration: 500 uM; one replicate
# Outline: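 The quencher-labelled ATP aptamer, at 100 nM, was annealed to Cy3-labelled switching-strand clusters on a modified Illumina MiSeq flow-cell. The clusters were imaged in selection buffer, then after 15 min with 500 uM ATP at 22 °C, and this buffer/ATP cycle ran five times with NaOH stripping and re-annealing between runs. Per-cluster fluorescence ratios, summed target-cycle over summed buffer-cycle Cy3 intensity, were averaged per switch-domain sequence. Clusters outside 100-1000 RFU were excluded.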
# 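Further: ATP exposure 15 min at 22 °C before imaging.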
row,Sequence,switch fluorescence ratio
1,TATGTGTCGA,1.05
2,TATGTTGTCA,1.02
3,TATGTTGTGG,0.957
4,TATTAAAGGA,1.06
5,TATTACGACT,1.04
6,TATTACGGGC,0.962
7,TATTAGAATG,0.998
8,TATTAGCTTC,1.05
9,TATTAGCTTG,1.02
10,TATTATACCG,1
11,TATTATCTAG,1.1
12,TATTATCTCG,1
13,TATTATGCA,1.01
14,TATTATGGTG,0.967
15,TATTATTTAG,1.01
16,TATTCAGGT,1.02
17,TATTCCCGAG,1
18,TATTCCCGTT,1
19,TATTCGAGGA,1.02
20,TATTCGGAGT,1.01
21,TATTCGGTAT,1.01
22,TATTCTACTA,1.01
23,TATTCTCGA,0.991
24,TATTCTGACA,1.04
25,TATTCTTGCA,1.02

row,Sequence,switch fluorescence ratio
1,TATTCTTTT,0.993
2,TATTGAAATA,1.06
3,TATTGACAAT,1.04
4,TATTGACAGC,1.17
5,TATTGACTCG,1.05
6,TATTGAGAGG,1.04
7,TATTGAGGAC,0.972
8,TATTGAGGAT,0.966
9,TATTGCAGGC,1.04
10,TATTGCCCCC,1.05
11,TATTGCTTAC,1.17
12,TATTGGAAGG,0.962
13,TATTGGAATA,0.979
14,TATTGGAGCT,0.984
15,TATTGGCACG,0.987
16,TATTGGGACA,0.988
17,TATTGTCTGT,1.03
18,TATTGTGCGA,1.03
19,TATTGTGGAA,0.955
20,TATTGTTAAT,0.974
21,TATTTAAGGC,0.976
22,TATTTAATAC,1.14
23,TATTTACCAG,1.01
24,TATTTCTGAA,0.973
25,TATTTGTATA,1.02

row,Sequence,switch fluorescence ratio
1,TATTTTCGCT,0.969
2,TATTTTGACT,0.934
3,TATTTTTCAA,0.968
4,TCAAAAAAGC,0.967
5,TCAAAAAGTC,0.977
6,TCAAACCATC,1.01
7,TCAAAGATAC,1.45
8,TCAAAGCCTG,0.955
9,TCAAAGGTCG,1.02
10,TCAAATTTT,1.04
11,TCAACATATA,1.11
12,TCAACCCAGA,1.05
13,TCAACGACCC,1.24
14,TCAACGAGCC,1.05
15,TCAACGATG,1.01
16,TCAACTGACG,1.01
17,TCAAGAAACT,1.02
18,TCAAGCACTC,1.44
19,TCAAGCGCGA,1.14
20,TCAAGCTAAG,0.987
21,TCAAGCTGCG,1.01
22,TCAAGGAGAA,1.01
23,TCAAGGATGC,0.984
24,TCAAGGTGCC,1.06
25,TCAAGTCTAC,1.09

row,Sequence,switch fluorescence ratio
1,TCAATCAAGC,1.03
2,TCAATCATCT,0.993
3,TCAATCCATC,0.955
4,TCAATCTGCA,1.02
5,TCAATGATGA,1.01
6,TCAATGATGT,1.02
7,TCAATGGGCA,0.981
8,TCAATTAGCT,1
9,TCAATTCCTG,1.07
10,TCAATTGCGG,0.985
11,TCACACGATA,1.28
12,TCACAGAACT,1.11
13,TCACAGAGGA,1
14,TCACAGATGC,1.08
15,TCACAGCCCT,1.05
16,TCACAGGCTA,1.05
17,TCACATCGTT,1.04
18,TCACATGGGG,1.01
19,TCACCCACCT,1.17
20,TCACCGAGAT,1.08
21,TCACGATTTT,1.02
22,TCACGCATAA,2.13
23,TCACGTCTGA,1.02
24,TCACGTTGA,1.04
25,TCACTAGCTC,1.01

row,Sequence,switch fluorescence ratio
1,TCACTAGTCC,1.61
2,TCACTATCGT,1.04
3,TCACTATGAG,1.05
4,TCACTATGCT,1.05
5,TCACTCATGA,1.04
6,TCACTCGGAA,1.08
7,TCAGAACGTT,1.03
8,TCAGAAGTGT,1.01
9,TCAGACAATT,1.05
10,TCAGACGACG,0.954
11,TCAGAGCCAT,1.03
12,TCAGAGTTTT,0.97
13,TCAGCAAAGG,1.16
14,TCAGCATAAC,4.64
15,TCAGCCAGCG,1.06
16,TCAGCCGGCG,1.05
17,TCAGCCGGG,1.07
18,TCAGCCTCTT,0.97
19,TCAGCCTGGG,1.01
20,TCAGCCTTCT,0.939
21,TCAGCGAAGC,0.978
22,TCAGCGCACT,1.16
23,TCAGCGGATT,0.988
24,TCAGCGGGGT,1.15
25,TCAGCGGGTA,1.03

row,Sequence,switch fluorescence ratio
1,TCAGCTTCAC,2.04
2,TCAGGGATAC,2.11
3,TCAGGGCGAC,1.04
4,TCAGGGCTTC,1.07
5,TCAGGTAGAT,1.03
6,TCAGGTCAT,1.01
7,TCAGTAAACG,1
8,TCAGTCGTTC,0.964
9,TCAGTGCCGT,0.988
10,TCAGTGTAA,1.05
11,TCAGTTTAGT,1.02
12,TCAGTTTTGG,0.972
13,TCATAAACAG,0.994
14,TCATAAGAG,1.02
15,TCATAATCGA,0.975
16,TCATACGGAT,1.06
17,TCATAGCCAA,1.21
18,TCATATTAGT,0.984
19,TCATATTGAA,0.987
20,TCATCAGTTG,0.983
21,TCATCGCCCG,0.952
22,TCATCTGGGC,1.06
23,TCATGAATGA,0.973
24,TCATGACATC,1.01
25,TCATGCACG,0.963

row,Sequence,switch fluorescence ratio
1,TCATGCGTG,0.971
2,TCATGGATCG,0.973
3,TCATTAGTAG,0.98
4,TCATTATGTT,0.988
5,TCATTCAAG,1.01
6,TCATTCGCGG,1.8
7,TCATTTAACC,1.09
8,TCATTTATAC,0.989
9,TCATTTTACA,1.01
10,TCATTTTATG,1.04
11,TCATTTTTTC,1.02
12,TCCAAAAGGA,1.03
13,TCCAAATCAC,1.02
14,TCCAACAGTG,2.06
15,TCCAACCACG,1.06
16,TCCAACGATT,1.06
17,TCCAACGTGC,1.91
18,TCCAAGATCT,1.03
19,TCCAAGGGAG,0.978
20,TCCAATATT,1.04
21,TCCAATGCA,1.21
22,TCCAATGGTA,0.975
23,TCCACATTGG,1.01
24,TCCACGTATT,1.23
25,TCCACTGCC,1.42

row,Sequence,switch fluorescence ratio
1,TCCACTTGTG,1.02
2,TCCAGAAAAG,1.04
3,TCCAGAACTT,1.03
4,TCCAGCGCGA,4.36
5,TCCAGCGTTG,1.02
6,TCCAGGAAGG,1
7,TCCAGGCATC,1.08
8,TCCAGTCGCT,1.1
9,TCCATCACTT,1.01
10,TCCATCAGTC,1.01
11,TCCATCTATT,0.996
12,TCCATGAAGT,0.983
13,TCCATGGCTT,0.953
14,TCCATTGAAA,0.972
15,TCCCAAAATT,1.01
16,TCCCAAAGGA,0.982
17,TCCCACAAAC,2
18,TCCCAGAGGG,1.1
19,TCCCATTGGT,0.987
20,TCCCCCCTTT,1.49
21,TCCCCTAATC,1.07
22,TCCCCTAGGT,3.55
23,TCCCCTGATG,1.51
24,TCCCCTGGAC,1.1
25,TCCCCTTACT,1.43
